From PubChem BioAssay AID485341 (National Center for Advancing Translational Sciences (NCATS), 2010)
Out of some 330,000 compounds screened, about 1,700 (0.52%) were called active. The inconclusive results got no clear call from the source; some entries with a clear call stand among them for comparison. Calls follow the shape of the dose curve; as a rule, active = well fitted inhibition curve with a large enough effect; inconclusive = small, poorly fitted or top-dose-only effect; inactive = no such curve, though single readings can be large or run the other way. Where the call is inconclusive, the potency comes from a doubtful curve fit.
Also: nearly all actives have a fitted effect of over 20% in size.
Potency is read from the fitted curve at half-maximal effect; tags tell the direction and shape of the fitted curve.

These molecules were tested against Beta-lactamase (Escherichia coli (strain K12)) (UniProt P00811) (assay: qHTS Inhibitors of AmpC Beta-Lactamase (assay without detergent)). Details: AmpC nitrocefin hydrolysis, absorbance 480 nm, 0.0001% Triton; series mostly up to 57.1 µM.
Chain of UniProt P00811 (P00811 whole entry, looked up): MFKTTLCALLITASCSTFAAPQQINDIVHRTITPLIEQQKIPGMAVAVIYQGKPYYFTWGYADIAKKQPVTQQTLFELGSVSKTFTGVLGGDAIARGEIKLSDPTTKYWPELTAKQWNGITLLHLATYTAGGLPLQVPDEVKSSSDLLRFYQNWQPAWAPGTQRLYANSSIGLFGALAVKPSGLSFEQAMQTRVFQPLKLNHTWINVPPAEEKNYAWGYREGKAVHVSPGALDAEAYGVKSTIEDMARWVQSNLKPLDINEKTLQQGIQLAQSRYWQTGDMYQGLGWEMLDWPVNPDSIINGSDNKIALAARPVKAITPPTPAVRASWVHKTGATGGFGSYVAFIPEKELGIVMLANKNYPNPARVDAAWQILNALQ
In short: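 20 mM phosphate pH 7.0 + 0.01% (detergent screen) or 0.0001% Triton X-100; 5.3 nM AmpC reagent; cpd preinc 15 min RT; nitrocefin (800 uM stock) to start; A480 q20 s × 4 min; Activity was normalised to no-enzyme and no-compound control wells.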
For `O=c1cc(O)c2sc(Nc3ccc(F)cc3)nc2[nH]1`, the Potency was inconclusive: 39.8 µM [inhibitor, single point]. For `Cc1cccc(NC(=S)N/N=C2/CCCCc3ccccc32)c1`, the Potency was active: 31.6 µM. For `COC(=O)CN(c1ccc(C)c(Cl)c1)S(C)(=O)=O`, the Potency was inconclusive: 6.31 µM [inhibitor, single point]. `Cc1ccc(S(=O)(=O)N(C)c2ccc(OCC(=O)Nc3nc(-c4ccccc4)cs3)cc2)cc1` was tested, and the Potency was active: 2 µM. For `Cc1ccc(C)c(NC(=O)CCC(=O)NNS(=O)(=O)c2ccc(Cl)cc2)c1`, the Potency was inconclusive: 39.8 µM [inhibitor, single point]. With `C/C(=N/O)c1no[n+]([O-])c1/C(C)=N\O` the Potency was “inactive”. `Cc1cccc(N2CCN(C(=O)CSc3nc4ccccc4nc3N3CC(C)OC(C)C3)CC2)c1C` (stereo not given) was tested, and the Potency was “inactive”. For `OC(CNc1ccccc1)Cn1ccc2ccccc21` (stereo not given), the Potency was inconclusive: 31.6 µM [inhibitor, single point]. For `O=C(Nc1ccccc1)N1CCc2c([nH]c3ccccc23)C1C(F)(F)F` (stereo not given), the Potency was inconclusive: 25.1 µM [inhibitor, single point]. For `COc1ccc(CN2CCCC(C(=O)c3ccc(Cl)cc3)C2)cc1Cn1cccn1` (stereo not given), the Potency was “inactive”. For `COc1ccccc1NS(=O)(=O)c1cccc(C(=O)N2CCN(Cc3ccc4c(c3)OCO4)CC2)c1`, the Potency was inconclusive: 39.8 µM [inhibitor, single point]. For `CCN(CC)CCn1c2c(c(SCC(=O)Nc3ccc4c(c3)OCO4)nc1=O)CCC2`, the Potency was inconclusive: 35.5 µM [inhibitor, single point]. In the case of `COc1cc2ccccc2cc1C(=O)Nc1ccncc1`, the Potency is reported as inconclusive: 35.5 µM [inhibitor, single point]. With `Cc1cccn2c(=O)nc(SCC(=O)N3CCC(C)CC3)nc12` the Potency was inconclusive: 25.1 µM [inhibitor, single point]. In the case of `Cc1cccc(C2=NN(c3ccc(Br)cc3)[C@@H](C(=O)N3CCOC3=O)[C@@H]2c2ccc(F)cc2)c1`, the Potency is reported as inconclusive: 7.08 µM [inhibitor, single point]. For `O=C(NCc1cccnc1)C1c2ccccc2C(=O)N1C1CCCC1` (stereo not given), the Potency was active: 20 µM. In the case of `Clc1cnc2nc(SC/C=C/c3ccccc3)[nH]c2c1`, the Potency is reported as “inactive”. `O=C(NC(=S)NCCC1=CCCCC1)c1ccccc1Br` was tested, and the Potency was inconclusive: 3.98 µM [inhibitor, partial curve]. For `CCC1=NN2C(=N)/C(=C\c3cccn3-c3ccc(C)cc3C)C(=O)N=C2S1`, the Potency was active: 25.1 µM. With `CCN(C(=O)CSc1nnc2c3ccccc3n(CC)c2n1)C1CCS(=O)(=O)C1` (stereo not given) the Potency was “inactive”. `Cc1ccn2c(NC3CCCC3)c(-c3cccs3)nc2c1` was tested, and the Potency was inconclusive: 17.8 µM [inhibitor, partial curve]. For `COc1ccc(C(CC(=O)N2CCC3(CC2)OCCO3)NS(=O)(=O)c2ccc(C)cc2)cc1` (stereo not given), the Potency was inconclusive: 7.94 µM [inhibitor, single point]. In the case of `CCOC(=O)N1CCN(c2cc(=O)n(-c3ccc(Br)cc3)c(=O)[nH]2)CC1`, the Potency is reported as active: 0.562 µM. With `C=CCNc1oc(-c2ccc(OCC)cc2)nc1C#N` the Potency was inconclusive: 0.141 µM [inhibitor, full curve, poor fit]. For `O=[N+]([O-])c1cc(S(=O)(=O)c2ccc(N3CCCCC3)c([N+](=O)[O-])c2)ccc1N1CCCCC1`, the Potency was active: 10 µM. `O=C(Nc1cccc(Oc2ccc3c(c2)C(=O)NC3=O)c1)c1cccs1` was tested, and the Potency was inconclusive: 14.1 µM [inhibitor, partial curve]. In the case of `Cc1cccc(C(=O)Nc2cccc(NC(=O)c3ccccc3)c2)c1`, the Potency is reported as active: 22.4 µM. With `O=C(Nc1ccncc1)Nc1ccc(Br)cc1Cl` the Potency was active: 7.94 µM. For `COc1ccc(C)cc1NC(=O)NNC(=O)c1cc2ccccc2cc1O`, the Potency was active: 6.31 µM. For `O=C(COC(=O)c1ccc(NS(=O)(=O)c2cccs2)cc1)Nc1nc2c(F)c(F)c(F)cc2s1`, the Potency was active: 20 µM. `CCCCN1C(=O)/C(=C/C=C2\SCCN2C)SC1=S` was tested, and the Potency was inconclusive: 17.8 µM [inhibitor, single point]. In the case of `CCc1cc2cc3c(cc2nc1SCC(=O)Nc1nnc(C)s1)OCCO3`, the Potency is reported as inconclusive: 5.01 µM [inhibitor, single point]. For `C=CCn1c(=NC(=O)CN2C(=O)CCC2=O)sc2cccc(OC)c21`, the Potency was inconclusive: 50.1 µM [inhibitor, partial curve, poor fit]. With `Cc1cc(C)cc(NC(=O)Cn2c(SCc3cc(C)ccc3C)nc3ccncc32)c1` the Potency was inconclusive: 3.16 µM [inhibitor, full curve, poor fit]. `COc1cc(SC)ccc1C(=O)Nc1cccc(C2OCCCO2)c1` was tested, and the Potency was “inactive”. With `CN(C)CCNC(=O)c1sc2nc(-c3ccccc3)cc(C(F)(F)F)c2c1N` the Potency was “inactive”. `COc1cc(/C=C2\SC(=O)NC2=O)ccc1Oc1ccc([N+](=O)[O-])cc1[N+](=O)[O-]` was tested, and the Potency was inconclusive: 2.82 µM [inhibitor, full curve, poor fit]. With `CS(=O)(=O)N(CC(=O)O)c1ccc2c(c1)OCO2` the Potency was inconclusive: 7.08 µM [inhibitor, single point]. In the case of `CC(C)(C)c1cc(C(=O)NNc2cccc(Cl)c2)n(Cc2ccccc2)n1`, the Potency is reported as inconclusive: 12.6 µM [inhibitor, partial curve]. In the case of `O=C(Nc1ccc(F)cc1)Nc1sccc1-c1nc2ccccc2s1`, the Potency is reported as inconclusive: 39.8 µM [inhibitor, single point]. In the case of `Cc1cccc(NC(=O)N(Cc2cc3cc(C)ccc3[nH]c2=O)CC2COCCO2)c1` (stereo not given), the Potency is reported as “inactive”. With `O=c1c(O)cccc2cc(O)c(O)c(O)c12` the Potency was active: 10 µM. `O=C(CSc1nc2ccccc2o1)NCc1ccc2c(c1)OCO2` was tested, and the Potency was inconclusive: 0.316 µM [inhibitor, full curve, poor fit]. With `O=C(OCC#CCSc1nnc(-c2cccc3ccccc23)o1)c1ccco1` the Potency was inconclusive: 0.282 µM [inhibitor, full curve, poor fit]. For `COc1ccc(NCC(=O)Nc2ccc(Cl)cc2C)c(OC)c1`, the Potency was inconclusive: 6.31 µM [inhibitor, single point]. `O=C(CCCCCNc1nc(=S)[nH]c2ccccc12)NCCc1ccc(Cl)cc1` was tested, and the Potency was active: 20 µM. `O=C(NC1CCCCC1)C(=O)c1c(-c2ccccc2)[nH]c2ccccc12` was tested, and the Potency was active: 12.6 µM. For `O=C1CC(SCc2nc3ccccc3[nH]2)C(=O)N1c1ccc(F)c(Cl)c1` (stereo not given), the Potency was “inactive”. With `COc1ccc(NC(=O)c2cccc(Oc3ccc([N+](=O)[O-])cc3Cl)c2)cc1` the Potency was active: 2.51 µM. For `CCCCCCOC(=O)C[N+](C)(C)CCOC1CC2CCC1(C)C2(C)C` (stereo not given), the Potency was inconclusive: 8.91 µM [inhibitor, single point]. With `CCNc1c([N+](=O)[O-])ncn1C` the Potency was “inactive”. `CCOc1ccc2cc(C3CC(c4ccco4)=NN3S(=O)(=O)c3ccccc3)c(Cl)nc2c1` (stereo not given) was tested, and the Potency was inconclusive: 8.91 µM [inhibitor, single point]. In the case of `CCNS(=O)(=O)c1ccc(NC(=O)Nc2cc(C)ccc2OC)cc1`, the Potency is reported as active: 11.2 µM. In the case of `Cc1ccccc1Oc1cc(NC(=O)Cn2cnc([N+](=O)[O-])c2)cc([N+](=O)[O-])c1`, the Potency is reported as inconclusive: 10 µM [inhibitor, partial curve, poor fit]. `CSc1nsc(/C=C/Nc2ccc(Cl)cc2)c1C#N` was tested, and the Potency was active: 17.8 µM. With `CC(=O)N=c1cccc(NC(C)=O)n1O` the Potency was inconclusive: 6.31 µM [inhibitor, single point]. For `CCOc1cc(CNc2ccc(N(C)C)cc2)cc(Br)c1OCC(=O)NC(C)(C)C`, the Potency was inconclusive: 8.91 µM [inhibitor, partial curve, poor fit]. For `COc1ccc(S(=O)(=O)NNc2nc(C)cc(C)n2)cc1Br`, the Potency was inconclusive: 39.8 µM [inhibitor, single point]. `Cc1ccc(NC(=S)NC2CCSc3ccccc32)cc1C` (stereo not given) was tested, and the Potency was active: 11.2 µM. For `CN(C)CCN(C(=O)/C=C/c1cccs1)c1nc2c(F)cc(F)cc2s1`, the Potency was inconclusive: 3.98 µM [inhibitor, single point]. For `C/C(=N\NC(=O)c1cc2ccccc2cc1O)c1cccs1`, the Potency was inconclusive: 39.8 µM [inhibitor, single point]. `COc1cc(/C=C2\SC(=S)N(NS(=O)(=O)c3ccc(C)cc3)C2=O)cc(OC)c1OC` was tested, and the Potency was inconclusive: 7.08 µM [inhibitor, partial curve]. `COP(=S)(OC)SCN1C(=O)c2ccccc2C1=O` was tested, and the Potency was inconclusive: 28.2 µM [inhibitor, single point]. `O=C(N/N=C/c1cn(Cc2ccccc2)c2ccccc12)c1cc(O)cc(O)c1` was tested, and the Potency was inconclusive: 39.8 µM [inhibitor, single point]. With `Cc1cccc(NC(=O)c2cc(S(=O)(=O)N3CCCCC3)c[nH]2)c1C` the Potency was inconclusive: 28.2 µM [inhibitor, single point]. `CCc1cc(C(=O)Cc2nc3ccccc3[nH]2)c(O)cc1O` was tested, and the Potency was inconclusive: 39.8 µM [inhibitor, single point]. `CCN(CC(=O)Nc1ccc(NC(C)=O)cc1)C(=O)c1cccc(-n2cccc2)c1` was tested, and the Potency was inconclusive: 35.5 µM [inhibitor, single point]. With `Cc1cc(C(=O)N/N=C/c2ccc(O)c([N+](=O)[O-])c2)c(C)n1-c1ccc(F)cc1` the Potency was active: 17.8 µM. `COc1ccc2cc(C(=O)Nc3ccc(O)cc3)sc(=O)c2c1OC` was tested, and the Potency was inconclusive: 7.08 µM [inhibitor, partial curve]. In the case of `O=S(=O)(NCC1CCCO1)c1ccc(S(=O)(=O)N2CCc3ccccc3C2)cc1` (stereo not given), the Potency is reported as inconclusive: 1.26 µM [inhibitor, partial curve, poor fit].
